Test system: NCI-H322M
Format: cell-based
Conditions: for Growth percent NCI-H322M: Non-small cell lung cancer, 48 hours, SRB; for Growth percent NCI-H322M / Growth percent: 10^−5 molar; for Growth percent / GI50 / CC50 / TGI: NCI-H322M; for GI50 / CC50: Homo sapiens; for GI50 / CC50 / TGI: five dose; for CC50: read-out: LC50 (the source's name)

Structure (SMILES) | Growth percent NCI-H322M [%] | Growth percent [%] | GI50 [µM] | CC50 [µM] | TGI [µM]
O=c1c2cc(Cl)ccc2sc2c(NCCO)nc3ccccc3c12 [Compound N9, 10-Chloro-6-(2-ethanolamino)-12H-thiochromeno[2,3-c]quinolin-12-one] | 79.00 |  |  |  | 
O=c1c2ccc(Cl)cc2sc2c(Cl)nc3ccccc3c12 [Compound 3, 6,9-Dichloro-12H-thiochromeno[2,3-c]quinolin-12-one] | 100.12 |  |  |  | 
O=c1c2cc(Cl)ccc2sc2c(NCCN3CCOCC3)nc3ccccc3c12 [Compound N16, 10-Chloro-6-((2-morpholinoethyl)amino)-12H-thiochromeno[2,3-c]quinolin-12-one] |  | 76.96 |  |  | 
COc1ccc(CCNc2nc3ccccc3c3c(=O)c4cc(Cl)ccc4sc23)cc1 [Compound N31, 10-Chloro-6-((4-methoxyphenethyl)amino)-12H-thiochromeno[2,3-c]quinolin-12-one] |  | 99.19 |  |  | 
NCCNc1nc2ccccc2c2c(=O)c3cc(Cl)ccc3sc12 [Compound N14, 6-((2-Aminoethyl)amino)-10-chloro-12H-thiochromeno[2,3-c]quinolin-12-one] | −50.28 |  | 1.65 | 6.74 | 3.34
CN(C)CCNc1nc2ccccc2c2c(=O)c3cc(Cl)ccc3sc12 [Compound N7, 10-Chloro-6-((2-(dimethylamino)ethyl)amino)-12H-thiochromeno[2,3-c]quinolin-12-one] | 49.16 |  | 1.74 | 5.81 | 3.18
O=c1c2cc(Cl)ccc2sc2c(NCCc3ccccc3)nc3ccccc3c12 [Compound N30, 10-Chloro-6-(phenethylamino)-12H-thiochromeno[2,3-c]quinolin-12-one] |  | 117.72 |  |  | 
CC(C)CC(C)Nc1nc2ccccc2c2c(=O)c3cc(Cl)ccc3sc12 (stereo not drawn) [Compound N13, 10-Chloro-6-((4-methylpentan-2-yl)amino)-12H-thiochromeno[2,3-c]quinolin-12-one] | 85.51 |  |  |  | 
O=c1c2cc(Cl)ccc2sc2c(NCc3ccc4c(c3)OCO4)nc3ccccc3c12 [Compound N27, 6-((Benzo[d][1,3]dioxol-5-ylmethyl)amino)-10-chloro-12H-thiochromeno[2,3-c]quinolin-12-one] |  | 73.65 |  |  | 
O=c1c2cc(Cl)ccc2sc2c(NCc3ccccc3)nc3ccccc3c12 [Compound N25, 6-(Benzylamino)-10-chloro-12H-thiochromeno[2,3-c]quinolin-12-one] |  | 91.00 | > 100 | > 100 | >100
CCC(CC)Nc1nc2ccccc2c2c(=O)c3cc(Cl)ccc3sc12 [Compound N6, 10-Chloro-6-(pentan-3-ylamino)-12H-thiochromeno[2,3-c]quinolin-12-one] | 92.45 |  |  |  | 
CNc1nc2ccccc2c2c(=O)c3cc(Cl)ccc3sc12 [Compound N1, 10-Chloro-6-methylamino-12H-thiochromeno[2,3-c]quinolin-12-one] | 60.89 |  |  |  | 
O=c1c2cc(Cl)ccc2sc2c(NCCCNCCO)nc3ccccc3c12 [Compound N19, 10-Chloro-6-((3-((2-hydroxyethyl)amino)propyl)amino)-12H-thiochromeno[2,3-c]quinolin-12-one] |  | 10.05 | 1.8 | 7.03 | 3.56
O=c1c2cc(Cl)ccc2sc2c(NC3CCCCC3)nc3ccccc3c12 [Compound N21, 10-Chloro-6-(cyclohexylamino)-12H-thiochromeno[2,3-c]quinolin-12-one] |  | 91.10 |  |  | 
O=c1c2cc(Cl)ccc2sc2c(N3CCN(Cc4ccccc4)CC3)nc3ccccc3c12 [Compound 11, 6-(4-Benzylpiperazin-1-yl)-10-chloro-12H-thiochromeno[2,3-c]quinolin-12-one] | 88.92 |  |  |  | 
CN(C)CCCNc1nc2ccccc2c2c(=O)c3cc(Cl)ccc3sc12 [Compound N17, 10-Chloro-6-((3-(dimethylamino)propyl)amino)-12H-thiochromeno[2,3-c]quinolin-12-one] |  | 82.29 |  |  | 
CCC(CO)Nc1nc2ccccc2c2c(=O)c3cc(Cl)ccc3sc12 (stereo not drawn) [Compound N12, 10-Chloro-6-((1-hydroxybutan-2-yl)amino)-12H-thiochromeno[2,3-c]quinolin-12-one] | 58.98 |  |  |  | 
CCNc1nc2ccccc2c2c(=O)c3cc(Cl)ccc3sc12 [Compound N2, 10-Chloro-6-ethylamino-12H-thiochromeno[2,3-c]quinolin-12-one] | 74.88 |  | 69.5 | > 100 | >100

From US8927717B1, “Thiochromeno[2,3-c]quinolin-12-one derivatives, preparation method and application thereof” (National Defense Medical Center, priority 2014, dated 2015)
